# Data as given in PubChem BioAssay AID1745847 (National Center for Advancing Translational Sciences (NCATS), 2022).
# About 670 (32%) of roughly 2,100 compounds were called active. The inconclusive results got no clear call from the source; some entries with a clear call stand among them for comparison. Calls come from the whole dose curve; as a rule, active = well fitted inhibition curve with a large enough effect; inconclusive = small, poorly fitted or top-dose-only effect; inactive = no such curve, though single readings can be large or run the other way. Where the call is inconclusive, the potency comes from a doubtful curve fit.
# Experiment: CMV-Luciferase Counterscreen for Inhibitors of ATXN expression; note: nearly all actives have a fitted effect of over 55% in size
# Conditions: HEK-293 CMV-luciferase reporter, luminescence, 24 h; series mostly up to 57.5 µM
# % is set by controls: 0 for no effect and ±100 for the full control effect; potency is the fitted concentration of half-maximal effect; tags give direction and shape of the fitted curve.
Structure (SMILES),Potency,"activity change, negative = inhibition"
CCCS(=O)(=O)c1c(S(=O)(=O)CCC)c2c(C)cccn2c1C(=O)N/N=C/c1cc(O)cc(O)c1,"inconclusive: 6.31 µM [inhibitor, partial curve, poor fit]",–
COc1cccc(/C=N/Nc2nc3ccccc3n3cnnc23)c1O,"inconclusive: 1.58 µM [inhibitor, partial curve, poor fit]",–
C=CCc1cccc(/C=N/NC(=O)C(C)Nc2ccc(C)cc2)c1O (stereo not drawn),active: 10 µM,–
O=C(CN1C(=O)C2CCCCC2C1=O)Nc1nc(-c2ccccn2)cs1 (stereo not drawn),"inconclusive: 4.47 µM [inhibitor, full curve, poor fit]",–
Cc1cccn2c(=O)c3cc(C(=O)NCCc4ccccc4)c(=N)n(CCCn4ccnc4)c3nc12,inactive,–
CCC1(O)C(=O)OCc2c1cc1n(c2=O)Cc2cc3cc(O)ccc3nc2-1 (stereo not drawn),active: 0.891 µM,–
CCN(CC)C(=O)C1=C(C)N(CCC2=CCCCC2)C(=O)C(CC(=O)NC(c2ccccc2)c2ccccc2)C1 (stereo not drawn),"inconclusive: 3.55 µM [inhibitor, single point]",–
CN(C)CCNc1ncnc2c1sc1nc(N3CCCC3)c3c(c12)CC(C)(C)OC3,inactive,–
COc1ccc(-c2csc(N(CCCN(C)C)C(=O)c3ccccc3Cl)n2)cc1,"inconclusive: 2.51 µM [inhibitor, partial curve]",–
Oc1ccc(Cl)c2cccnc12,inactive,–
CCc1nnc(NC(=O)c2ccc(S(=O)(=O)N(C)Cc3ccccc3)cc2)o1,"inconclusive: 8.91 µM [inhibitor, full curve, poor fit]",–
COc1cccc(C(=O)c2sc(NC(C)C)nc2N)c1,–,inactive: 267% [at 11.4 µM]
COc1ccc(C2CC(c3ccccc3Cl)=NN2c2ccc(S(N)(=O)=O)cc2)cc1 (stereo not drawn),"inconclusive: 25.1 µM [inhibitor, single point]",–
CCOC(=O)N1CCN(Cc2cc(Cl)c3cccnc3c2O)CC1,"inconclusive: 1.41 µM [inhibitor, partial curve, poor fit]",–
Oc1c(C(Nc2ccccn2)c2ccccn2)ccc2cccnc12 (stereo not drawn),active: 2.82 µM,–
CC1=CC(C)(C)N2C(=O)C3(SCC(=O)N3c3ccc(F)cc3)c3cc(C)cc1c32 (stereo not drawn),"inconclusive: 3.98 µM [inhibitor, single point]",–
Cc1nc2ccccc2c(=O)n1/N=C/c1cc(Br)ccc1O,"inconclusive: 25.1 µM [inhibitor, single point]",–
O=C(CCC(=O)Nc1cc(C(F)(F)F)ccc1Cl)N/N=C\c1cc([N+](=O)[O-])ccc1O,"inconclusive: 3.55 µM [inhibitor, single point]",–
CN1CCC[C@H]1CCNc1ccc2c(=O)c3ccccc3n(C)c2c1,inactive,–
COc1cccc(/C=N/NC(=O)c2ccc(=O)n(C)c2)c1O,"inconclusive: 17.8 µM [inhibitor, partial curve, poor fit]",–
CSCc1nnc(NC(=O)c2ccc(S(=O)(=O)N3CCCCC3C)cc2)o1 (stereo not drawn),"inconclusive: 10 µM [inhibitor, partial curve]",–

Structure (SMILES),Potency,"activity change, negative = inhibition"
O=C(Nc1ccc(CN2CCCCC2)cc1)Nc1ccc(Br)cc1Cl,"inconclusive: 17.8 µM [inhibitor, partial curve, poor fit]",–
COc1cccc(/C=N/NC(=O)c2cc3c(OC)cccc3[nH]2)c1O,"inconclusive: 2.51 µM [inhibitor, full curve, poor fit]",–
O=c1cc(-c2cccnc2)oc2c1ccc1ccccc12,"inconclusive: 2.82 µM [inhibitor, partial curve, poor fit]",–
CC(C)c1ccc2c(c1)C(N1CCNCC1)Cc1ccc(F)cc1S2 (stereo not drawn),active: 35.5 µM,–
O=C(/C=C/c1ccccc1Cl)c1ccccc(=O)c1O,inactive,–
COc1ccc(-c2csc3ncnc(Sc4nnnn4C)c23)cc1,active: 3.98 µM,–
CCn1c2ccccc2c2cc(/C=C(/C#N)C(N)=S)ccc21,"inconclusive: 0.631 µM [inhibitor, full curve, poor fit]",–
Cc1sc2cc3c(c(C(=O)c4ccccc4)[n+]2c1C)-c1cccc2cccc-3c12,active: 3.16 µM,–
Cc1ccc(-c2cc(C(=O)NCCCN3CCOCC3)no2)cc1,active: 8.91 µM,–
OC1(c2ccc(Br)cc2)CCNCC1,–,inactive: 0.489% [at 11.4 µM]
Cc1nc(N/N=C/c2ccc(O)cc2O)cc(N2CCOCC2)n1,"inconclusive: 35.5 µM [inhibitor, single point]",–
COc1ccc(CN(C)C(=O)c2cccc(NC(=O)CC3SC(N4CCCCC4)=NC3=O)c2)c(OC)c1 (stereo not drawn),active: 10 µM,–
O=C(NN=Cc1c(O)ccc2ccccc12)c1ccc2c(c1)OCO2,active: 2.24 µM,–
COc1ccc(N2CCN(c3nc(NCCc4ccc(OC)c(OC)c4)nc(OC)n3)CC2)cc1,"inconclusive: 15.8 µM [inhibitor, partial curve, poor fit]",–
COc1cc(C=CC(=O)c2cc(OC)c(OC)c(OC)c2)cc(OC)c1OC,active: 12.6 µM,–
Clc1ccc(COC(Cn2ccnc2)c2ccc(Cl)cc2Cl)c(Cl)c1 (stereo not drawn),"inconclusive: 3.55 µM [inhibitor, single point]",–
O=C(Nc1ccccc1NC(=O)NC1CCCCC1)NC1CCCCC1,"inconclusive: 15.8 µM [inhibitor, single point]",–
CCc1nc2c(OCCOc3ccc(F)cc3)cccn2c1N(C)C(=O)c1ccco1,"inconclusive: 20 µM [inhibitor, single point]",–
CCCCCn1c(=O)c2ccccc2n2c(CCl)nnc12,active: 25.1 µM,–
COc1ccc(-c2csc(NC(=O)c3ccccc3NS(=O)(=O)c3ccc(F)c(F)c3)n2)cc1,"inconclusive: 0.794 µM [inhibitor, full curve, poor fit]",–
Clc1ccc(C[n+]2cc(-c3ccccc3)n3c2CCCCC3)c(Cl)c1,"inconclusive: 5.01 µM [inhibitor, full curve, poor fit]",–

Structure (SMILES),Potency,"activity change, negative = inhibition"
O=C(NCCc1csc(-c2ccc(Cl)cc2)n1)c1ccco1,"inconclusive: 31.6 µM [inhibitor, single point]",–
O=C(NCCc1ccccc1)c1ccc2nccnc2c1,"inconclusive: 2 µM [inhibitor, partial curve, poor fit]",–
CC(C)[C@H](NC(=O)c1ccc(C(C)(C)C)cc1)C(=O)N1CCN(Cc2ccc3c(c2)OCO3)CC1,"inconclusive: 12.6 µM [inhibitor, partial curve, poor fit]",–
Cc1c(C(=O)N2CCN(c3ccc(F)cc3)CC2)sc2ncnc(N3CCN(c4ccccn4)CC3)c12,"inconclusive: 3.16 µM [inhibitor, partial curve, poor fit]",–
CCCCn1c(SCc2ncc(-c3ccccc3)o2)nc2cc(S(N)(=O)=O)ccc21,"inconclusive: 15.8 µM [inhibitor, partial curve, poor fit]",–
COc1ccccc1N1CCN(Cc2ccc(O)c3ncccc23)CC1,active: 0.891 µM,–
COc1ccc(F)cc1-c1cc(NC=O)c2ncc(-c3cccc(C(=O)N(C)C)c3)n2c1,–,inactive: -8.79% [at 11.4 µM]
COc1cccc(/C=N/NC(=O)c2c(-c3ccccc3)noc2C)c1O,"inconclusive: 1 µM [inhibitor, partial curve, poor fit]",–
Cc1nn(Cc2c(F)c(F)c(F)c(F)c2F)c(C)c1NC(=O)c1ccc(COc2ccc(Cl)cc2Cl)o1,"inconclusive: 15.8 µM [inhibitor, partial curve, poor fit]",–
CCN(CC)c1nc(-c2ccccn2)nc(-c2ccccc2)c1C#N,active: 7.08 µM,–
Cc1cc(C)c2nc(N3CCCC(C(=O)N4CCN(c5ncccn5)CC4)C3)sc2c1 (stereo not drawn),active: 3.55 µM,–
Oc1ccc(C[C@@H]2CNCCN2CCc2cc(C(F)(F)F)cc(C(F)(F)F)c2)cc1,–,inactive: -21.2% [at 11.4 µM]
Cc1ccc(S(=O)(=O)N(C(=O)c2ccncc2)c2ccc(OC(=O)c3ccncc3)c3ccccc23)cc1,"inconclusive: 5.01 µM [inhibitor, single point]",–
CN(C)CCCN(C(=O)CCc1ccccc1)c1nc2ccc(Br)cc2s1,"inconclusive: 35.5 µM [inhibitor, single point]",–
OC[C@@H]1CN(Cc2ccncc2)C[C@H](n2cnc3c(N4CCN(c5ccccc5)CC4)ncnc32)O1,"inconclusive: 0.891 µM [inhibitor, full curve, poor fit]",–
C(=NN1CCCCCC1)c1ccc2ccccc2n1,active: 15.8 µM,–
Cc1ccc(NC(=O)CCC(=O)c2cc(C)sc2C)nc1,inactive,–
Cc1nn(-c2ccccc2)c(N2CCCC2)c1/C=N/NC(=O)c1cc2ccccc2cc1O,"inconclusive: 3.55 µM [inhibitor, single point]",–
COc1ccc(O)c(/C=N/NC(=O)c2ccc(OCc3cccc(Br)c3)cc2)c1,"inconclusive: 0.794 µM [inhibitor, full curve, poor fit]",–
O=C(NC(=S)N1CCN(c2ccc(F)cc2)CC1)c1cccs1,"inconclusive: 3.98 µM [inhibitor, single point]",–
CCC1(c2ccccc2)ON(c2c(Br)cccc2Br)C1=O (stereo not drawn),active: 17.8 µM,–
